# Measurements from PubChem BioAssay AID485344 (National Center for Advancing Translational Sciences (NCATS), 2010).
# In all, about 340,000 compounds went through this assay and about 6,900 (2%) were called active. No stated cut-off is given here; in the data, active means inhibition above about 30%; inactive means below that, where a call was filed. The entries are a selection whose mix differs from that of the whole data set. Where no call is shown, the source filed none.
# Target: D(2) dopamine receptor (Homo sapiens) (UniProt P14416)
# Sequence of UniProt P14416 (P14416 whole entry, looked up): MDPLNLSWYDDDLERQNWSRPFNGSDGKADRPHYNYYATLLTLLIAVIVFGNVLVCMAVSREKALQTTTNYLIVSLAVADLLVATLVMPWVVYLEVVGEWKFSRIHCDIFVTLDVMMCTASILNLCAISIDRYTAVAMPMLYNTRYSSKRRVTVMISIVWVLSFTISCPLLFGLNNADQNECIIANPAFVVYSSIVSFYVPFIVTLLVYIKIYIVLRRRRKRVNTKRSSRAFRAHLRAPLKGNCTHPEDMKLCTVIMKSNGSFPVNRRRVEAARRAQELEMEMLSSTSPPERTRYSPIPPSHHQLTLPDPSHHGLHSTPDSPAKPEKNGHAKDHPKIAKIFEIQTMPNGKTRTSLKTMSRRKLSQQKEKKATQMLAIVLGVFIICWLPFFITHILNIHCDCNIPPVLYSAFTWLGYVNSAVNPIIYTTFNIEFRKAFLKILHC
# Experiment: HTS Assay for Allosteric Antagonists of the Human D2 Dopamine Receptor: Primary Screen for Antagonists; further: 0% is about no effect
# Settings: HEK293 TREx D2 cells, calcium flux, dopamine EC80; at 10 µM; stronger effect = higher value
# In short: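 Measurement of antagonist activity uses fluorescent calcium dye in inducible HEK293 T-REx D2 cells: 10 s baseline, compound addition with 180 s read, EC80 dopamine addition with a further 180 s read.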
row,SMILES,inhibition
1,Cn1nc(C(=O)Nc2ccc(Br)cc2)cc1C(=O)Nc1ccc(Br)cc1,active: 38.3%
2,COc1cccc(-n2cc(CNCc3cn(C)nc3-c3ccccc3F)cn2)c1,active: 84.7%
3,Cc1cccc(N2CCN(C(=O)c3ccc4c(c3)CCN4S(=O)(=O)c3ccccc3)CC2)c1C,5.75%
4,CCc1ccc(Nc2nc3ccccc3c3nnc(C)n23)cc1,1.96%
5,CC(=O)c1cc(-c2ccccc2)n(CC(=O)Nc2ccc(C)cc2C)c1C,-9.27%
6,Nc1nonc1-c1nc2ccccc2n1CC(=O)Nc1ccc(F)cc1,1.39%
7,CCn1c(SC(C)C(=O)NCC2CCCO2)nc2ccccc21 (configuration not stated),active: 31%
8,Cc1ccc(S(=O)(=O)c2cn(CC(=O)Nc3ccccc3)c3cc4c(cc3c2=O)OCO4)cc1,22%
9,Cc1ccc(-c2nc(CS(=O)CC(=O)O)c(C)o2)cc1 (configuration not stated),-12.9%
10,CCN1CCN(c2ncc3c(n2)CCN(Cc2ccc(C)s2)C3)CC1,-10.9%
11,Cc1cccc(CCNC(=O)c2nc(-c3ccc(Cl)cc3)n3c2CCCCC3)c1,-4.45%
12,COc1ccc(Br)cc1CNC(=O)c1cc2c(=O)n(C)c3ccccc3c2s1,-16.1%
13,CCn1c2c(c(=O)n3ncc(C(=O)Nc4ccc(F)c(Cl)c4)c13)CN(Cc1ccc(OC)cc1)CC2,18.4%
14,CC(C)CC(=O)N(Cc1ccccc1)S(=O)(=O)c1ccc2c(c1)oc(=O)n2C,-8.9%
15,CCOc1ccc(C(=O)OCc2cc(=O)n3nc(C(C)C)sc3n2)cc1,6.66%
16,Cc1ccc(Cl)cc1N1CCN(C(=O)c2cn(C)c3ccc(S(=O)(=O)N4CCCC4)cc3c2=O)CC1,-0.366%
17,CC1=C(C(=O)OC2CCCC2)C(c2cccc(Cl)c2Cl)CC(=O)N1 (configuration not stated),9.49%
18,Cc1ccccc1OCC(=O)Nc1nnc(S(=O)(=O)N(C)c2ccccc2)s1,15.4%
19,COc1ccccc1N1CCN(C(=O)c2cc3c(=O)n(Cc4cccnc4)ccc3nc2C)CC1,-8.35%
20,O=C(Cn1c(=O)n(-c2ccccc2)c(=O)c2c3c(sc21)CCCC3)Nc1ccc(F)cc1,-0.603%
21,CCC1Oc2ccccc2N(CC(=O)NCc2ccc(C)cc2)C1=O (configuration not stated),24%
22,CCOc1ccc(CNC(=O)c2cnc(SC)nc2C)cc1,1.08%
23,COC(=O)c1c(-c2cccs2)csc1NC(=O)COc1ccc(C(C)C)cc1,-5.94%
24,CCOC(=O)C1CCN(C(=O)c2nn(-c3ccc(C)cc3)c(=O)n(C)c2=O)CC1,22.2%
25,O=C(Nc1ccc(Cl)cc1C(F)(F)F)c1cc(S(=O)(=O)NCc2ccccc2)ccc1F,-8.17%

row,SMILES,inhibition
1,CCc1ccc(CNC(=O)c2ccc(CS(=O)(=O)Cc3ccccc3C)o2)cc1,18.4%
2,O=C(CSc1nccn1C1CCCC1)Nc1ccccc1,-1.36%
3,CCOC(=O)CSc1nc2ccccc2n2c(C)nnc12,9.01%
4,CCN(CC)C(=O)C1CCN(C(=O)c2cnn(-c3ccccc3)c2-n2cccc2)CC1,7.22%
5,COc1ccc(CNC(=O)CCS(=O)(=O)c2ccc3c(c2)CC(C)N3C(=O)C2CC2)cc1 (configuration not stated),0.72%
6,COc1cccc(NC(=O)CN2C(=O)C3(SCC(=O)N3c3cc(C)cc(C)c3)c3ccccc32)c1 (configuration not stated),6.27%
7,Cc1ccc(CN2C(=O)N(c3ccc(C)c(Cl)c3)S(=O)(=O)c3ccccc32)cc1,5.27%
8,Cc1ccc(NC(=O)C2CCN(S(=O)(=O)c3c(C)noc3C)CC2)cc1C,-7.19%
9,N#Cc1ccc(NC(=O)COCc2cc(-c3ccc(F)cc3)on2)cc1,2.52%
10,COC(=O)c1cc2oc(C)cc2n1Cc1ccc(Cl)cc1,12.5%
11,N#Cc1ccc(NC(=O)CN2CCN(c3ccccn3)CC2)cc1,active: 68.4%
12,CC(C)n1c(=N)c(C(=O)NCc2cccnc2)cc2c(=O)n3ccccc3nc21,-1.5%
13,Cc1ccccc1NC(=O)CC1SCCNC1=O (configuration not stated),active: 45%
14,COc1ccc(Cl)cc1NS(=O)(=O)c1cc(Br)cc2c1N(C(=O)C1CC1)CC2,-5.26%
15,Cc1ccc(CNC(=O)CCc2c(C)nc3c(c(C)nn3-c3ccccc3)c2C)cc1,-10.2%
16,COc1ccc(C(=O)c2oc3ccccc3c2NC(=O)COc2ccccc2)cc1,-0.206%
17,COc1ccc(CCNC(=O)c2sc3nc4n(c(=O)c3c2C)CCCC4)cc1OC,-23.5%
18,CCc1cccc(C)c1NC(=O)CC1Oc2ccc(C)cc2NC1=O (configuration not stated),7.82%
19,CCC(C)n1c(=N)c(C(=O)NCc2ccccc2)cc2c(=O)n3cc(C)ccc3nc21 (configuration not stated),-12.2%
20,COc1ccc(C(=O)Nc2nnc(S(=O)(=O)N3CCCCCC3)s2)cc1OC,6.11%
21,CCOC(=O)c1cc(-c2ccccc2)n(-c2cccc(C(=O)Nc3cccc(F)c3)c2)c1C,23.3%
22,Cc1ccc(NC(=O)C2CCN(c3nc4ccccc4nc3C(F)(F)F)CC2)cc1F,0.537%
23,O=C1N[C@@H](Cc2ccccc2)[C@@H](c2ccco2)O1,active: 31.8%
24,COc1ccc(N2CCN(C(=O)C3CCCN(S(=O)(=O)c4ccc5c(c4)CCCN5C(C)=O)C3)CC2)cc1 (configuration not stated),6.53%
25,CCOC(=O)c1cnc2c(ccc3ccccc32)c1Nc1ccccc1OCC,3.95%

row,SMILES,inhibition
1,COc1ccc(OC)c(-c2cc(C(=O)NCCc3ccccc3)c3c(-c4ccc(C)cc4)[nH]nc3n2)c1,-2.73%
2,COCCCNC(=O)CS(=O)Cc1nc(-c2cccc(C)c2)oc1C (configuration not stated),7.67%
3,CCOc1ccccc1NC(=O)c1c(NC(=O)COc2ccccc2)sc2c1CCCCC2,-8.01%
4,CC(NC(=O)CCCC1=NS(=O)(=O)c2ccccc2N1)c1ccccc1 (configuration not stated),5.88%
5,Cc1ccc(N2C(=O)CSC23C(=O)N(CC(=O)NCCc2ccccc2)c2ccccc23)cc1C (configuration not stated),2.46%
6,CCCn1cc(S(=O)(=O)c2ccccc2)c(=O)c2cc(F)c(N3CCCCC3)cc21,8.99%
7,O=C(Nc1cccc(Cl)c1)N1CCSc2ccccc21,-18.9%
8,CSc1ccc(CCNC(=O)c2cnn(-c3ccccc3)c2-n2cccc2)cc1,2.07%
9,CCN(CC)c1cc(C)c2cc(NC(=O)c3cccc(F)c3)ccc2n1,-4.46%
10,Cc1cccc(NC(=O)c2cc(S(=O)(=O)N3CCc4ccccc43)ccc2F)c1C,13.8%
11,CC(=O)Nc1ccc(S(=O)(=O)Oc2ccc(/C=N/N=C3/NC(=O)C(CC(=O)O)S3)cc2)cc1 (configuration not stated),active: 35.4%
12,CCOc1ccccc1CNC(=O)Cn1c(-c2ccccc2)cc(C(C)=O)c1C,-4.32%
13,Cc1ccn2c(=O)c(C(=O)NCCc3ccccc3)c(O)nc2c1,1.13%
14,O=C(CCc1nc(-c2cccs2)no1)Nc1ccccc1[N+](=O)[O-],-5.27%
15,O=C(Cn1c(=O)n(Cc2ccccc2)c(=O)c2sc3ccccc3c21)NCc1ccccc1Cl,8.84%
16,O=C(NC1CC(=O)N(c2cccc(F)c2)C1)c1ccc(S(=O)(=O)N2CCCC2)cc1 (configuration not stated),-8.19%
17,COc1cc(/C=N/NC(=O)c2c(-c3ccccc3)noc2C)cc(OC)c1OC,active: 56.3%
18,COc1ccc(CCNC(=O)c2cnc3ccc(C)cn3c2=O)cc1,11.2%
19,CCCS(=O)(=O)c1c(S(=O)(=O)CCC)c2cc(CC)ccn2c1C(=O)c1ccc(OC)cc1,-6.73%
20,O=C(NCCCN1CCN(c2cccc(Cl)c2)CC1)C1CCC(=O)N1Cc1ccccc1Cl (configuration not stated),active: 39.8%
21,CC(C)CS(=O)(=O)c1oc(-c2ccc(F)cc2)nc1S(=O)(=O)c1ccccc1,-18.2%
22,COc1cccc(Cn2nnc(C(=O)Nc3cc(C)ccc3C)c2N)c1,-17.6%
23,CCOc1ccc(NC(=O)N2CCC(C(N)=O)(N3CCCCC3)CC2)cc1,3.1%
24,O=C(Nc1ccc(C(=O)OCc2cc(=O)n3c4c(sc3n2)CCCC4)cc1)c1ccccc1,13.1%
25,Cc1cc(OCCN2CCCC2)cc(C(C)C)c1,active: 46.1%

row,SMILES,inhibition
1,CC(=O)c1ccc(NC(=O)c2noc3c2CCc2ccccc2-3)cc1,17.9%
2,COc1ccc(C2C(C(N)=O)=C(C)Nc3nc(CCCO)nn32)c(OC)c1 (configuration not stated),-2.06%
3,c1ccc(-c2ccccc2OCCCN2CCCCCC2)cc1,active: 56.2%
4,Cc1ccc(Cl)cc1NC(=O)C(C)n1nnc2sc3c(c2c1=O)CCCC3 (configuration not stated),-21.5%
5,Cc1cccc(N2CCN(S(=O)(=O)c3ccc4c(c3)CCCN4C(=O)C3CCC3)CC2C)c1 (configuration not stated),-7.88%
6,COc1ccc(Cn2c(=O)[nH]c3cc(C(=O)N4CCN(c5cccc(Cl)c5)CC4)ccc3c2=O)cc1,2.89%
7,Cn1c(=O)n(-c2ccc(Br)cc2F)c(=O)c2sc3ccccc3c21,18%
8,CCOC(=O)c1ccc(CN(Cc2ccc(F)cc2)S(=O)(=O)c2cc(C(=O)Nc3cccc(C(F)(F)F)c3)ccc2F)cc1,-13%
9,CCOc1ccc(NC(=O)CN2C(=O)C(c3ccccc3)=NC23CCC(C)CC3)cc1 (configuration not stated),7.38%
10,O=C(NC1CCCCCC1)c1ccc2c(c1)sc1nc(-c3ccc(F)cc3)cn12,25.8%
11,CCCN1C(C(=O)c2ccccc2)=C(OC(=O)COc2ccccc2)c2ccccc2S1(=O)=O,2.01%
12,Cc1cc(C)c(NC(=O)CSc2nc3ccccc3nc2N2CCCCC2)c(C)c1,-1.87%
13,CCCc1nc2sc3c(N4CCC(C)CC4)ncnc3c2c2c1CCCC2,14.5%
14,CC(C)COc1cccc(C(=O)Nc2ccc(-c3nc4ncccc4o3)cc2)c1,-2.1%
15,CCC(C(=O)Nc1cccc(Cl)c1C)n1nc(-c2ccc(C)cc2)ccc1=O (configuration not stated),-10%
16,CC(C)COc1ccc(C(=O)Nc2ccc(S(=O)(=O)Nc3ncccn3)cc2)cc1,-3.59%
17,CCC(=O)Nc1cc(C)c(O)c(-c2nc3ncccc3o2)c1,10.6%
18,CC1CCN(C(=O)Cn2cc(SCC(=O)NCc3ccccc3Cl)c3ccccc32)CC1,5.35%
19,O=C(Cn1cnc2c(oc3ccccc32)c1=O)Nc1ccccc1C(F)(F)F,-19.6%
20,COc1ccc(OC)c(NC(=O)CN(C)S(=O)(=O)c2ccc(C(=O)N3CCOCC3)s2)c1,-11.3%
21,Cc1cc(C)c(C)c(OCCCCN2CCCCC2)c1,active: 55.3%
22,COc1ccccc1NC(=O)Cn1c(=O)n(Cc2ccccc2)c(=O)c2sc3ccccc3c21,14.3%
